According to PubChem BioAssay AID894 (National Center for Advancing Translational Sciences (NCATS), 2007):
Several values for one entry are separate records, joined by “and”; a condition that tells them apart may be missing. Equal entries are not always repeated. About 6,500 (4.3%) of roughly 150,000 compounds were called active. Inconclusive means that the source gave no clear call. Such entries were picked first, then a sample of the others. Calls follow the shape of the dose curve; as a rule, active = well fitted inhibition curve with a large enough effect (not every such curve was filed as active); inconclusive = small, poorly fitted or top-dose-only effect, or another doubt; inactive = no such curve, though single readings can be large or run the other way. No potency is given beside an inconclusive call; the fits are too rough.
% is scaled to controls: 0 for no effect and ±100 for the full control effect; potency is read from the fitted curve at half-maximal effect; tags tell the direction and shape of the fitted curve.

The compounds below were run against 15-hydroxyprostaglandin dehydrogenase [NAD(+)] (Homo sapiens) (UniProt P15428) (assay: qHTS Assay for Inhibitors of HPGD (15-Hydroxyprostaglandin Dehydrogenase)). Conditions: purified HPGD, NADH fluorescence kinetic, PGE2 substrate; activity change, negative = inhibition: hits give low values.
UniProt P15428, sequence (P15428 whole entry, looked up): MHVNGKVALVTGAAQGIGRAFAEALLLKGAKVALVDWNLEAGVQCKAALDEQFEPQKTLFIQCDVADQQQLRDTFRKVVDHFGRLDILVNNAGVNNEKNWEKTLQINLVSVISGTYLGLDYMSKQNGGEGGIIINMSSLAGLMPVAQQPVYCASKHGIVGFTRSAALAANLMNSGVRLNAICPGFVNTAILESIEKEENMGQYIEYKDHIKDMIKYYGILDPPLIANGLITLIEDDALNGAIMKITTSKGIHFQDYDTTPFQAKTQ
Outline: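 NADH formation kinetics: reaction with 30 uM PGE2 and 1 mM NAD+ (final), 20 nM enzyme, Tris-HCl pH 8 with Tween 20, after 15 min compound preincubation at room temperature. Fluorescence change, last versus first of five reads.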
In the case of `CC[C@@H]1C(c2ccccc2)=NN(c2ccc(Br)cc2)[C@H]1C(=O)N1CCOC1=O`, the Potency was inconclusive [inhibitor, partial curve].
`CCn1c(SCC(=O)O)nnc1-c1cc2c(C)nn(-c3ccccc3)c2s1` was tested, and the Potency was inconclusive [inhibitor, partial curve].
With `CCC(=O)N1C(=O)CCN(C(C)=O)c2ccccc21` the activity change, negative = inhibition was inactive: -2.75%.
For `O=C(Nc1sc2c(c1C(=O)O)CCC2)c1cccs1`, the Potency was active: 25.1 µM.
`C=CCn1c2ccccc2n2nc(C)c(=O)nc12` was tested, and the Potency was inconclusive [inhibitor, partial curve].
In the case of `COc1ccccc1NC(=O)CCCc1c[nH]c2ccccc12`, the Potency was inconclusive [inhibitor, single point].
In the case of `O=C1CCCC2[C@@H]3CCC[N@+]4([O-])CCC[C@H](CN12)C34` (stereo partly specified), the activity change, negative = inhibition was inactive: -4%.
With `CC1CC(C)CN(C(=O)/C(=C\c2ccccc2)c2ccccc2)C1` (stereo unspecified) the Potency was active: 11.2 µM.
With `COC(=O)C1=C(C)Nc2nnnn2C1c1cccnc1` (stereo unspecified) the Potency was active: 35.5 µM.
`O=C(c1nc2nc(-c3cccs3)cc(C(F)(F)F)n2n1)N1CCN(Cc2ccccc2)CC1` was tested, and the Potency was inconclusive [inhibitor, partial curve].
`COC(=O)c1ccccc1NC(=S)NC(=O)c1ccccc1` was tested, and the Potency was inconclusive [inhibitor, partial curve].
`COC(=O)c1ccccc1NC(=O)Cn1nnc(-c2ccc(OC)cc2)n1` was tested, and the Potency was inconclusive [inhibitor, single point].
In the case of `OCC(O)C(O)C(O)CO` (stereo unspecified), the activity change, negative = inhibition was inactive: -7.93% and inactive: -6.55%.
`Cc1nc2ccccc2c(=O)n1NC(=O)c1ccco1` was tested, and the activity change, negative = inhibition was inactive: -20.8%.
With `COC(=O)c1c(C(=O)OC)c2ccncn2c1Cl` the Potency was inconclusive [inhibitor, partial curve].
`CCOC(=O)Cn1nc(/C=C/c2ccc(C)cc2)ccc1=O` was tested, and the Potency was inconclusive [inhibitor, partial curve].
With `CC1(c2ccc3ccccc3c2)NC(=O)N(CC(=O)NCc2cccs2)C1=O` (stereo unspecified) the Potency was inconclusive [inhibitor, single point].
For `Cc1cc(N2CCN(C(=O)c3ccco3)CC2)n2nc(-c3cccc(F)c3)cc2n1`, the Potency was inconclusive [inhibitor, single point].
For `C[C@H]1Cc2c(-c3ccccc3)nc3c(c2CO1)CN(C(=O)Cc1cccs1)CC3`, the activity change, negative = inhibition was inactive: -4.01%.
With `COc1ccccc1NC(=S)N(Cc1ccco1)Cc1cc2cccc(C)c2[nH]c1=O` the activity change, negative = inhibition was inactive: -8.57%.
In the case of `Cc1ccc(S(=O)(=O)n2c(CN3CCCC(C)C3)nc3ccccc32)cc1` (stereo unspecified), the Potency was inconclusive [inhibitor, single point].
For `COc1ccc(NS(=O)(=O)c2cc(NC(=O)[C@@H](NC(=O)c3ccccc3)C(C)C)ccc2C)cc1`, the Potency was inconclusive [inhibitor, single point].
In the case of `C=CCn1c(SCC(=O)C(C)(C)C)nnc1-c1ccccn1`, the activity change, negative = inhibition was inactive: -20.7%.
`C=CCc1c(C)nc(-c2ccccc2)nc1N/N=C(\C)c1ccc(N)cc1` was tested, and the Potency was inconclusive [inhibitor, single point].
With `COc1ccccc1N=c1oc2cc(O)ccc2cc1C(=O)NCC1CCCO1` (stereo unspecified) the Potency was inconclusive [inhibitor, partial curve].
With `O=c1oc2ccccc2cc1O` the Potency was active: 17.8 µM.
In the case of `CC1CCN(C(=O)CSc2nc(N)cc(N)n2)CC1`, the Potency was active: 15.8 µM.
In the case of `CCCc1cc(=O)oc2cc(OCC(=O)NCc3cccs3)ccc12`, the Potency was inconclusive [inhibitor, partial curve].
In the case of `CC(C)Nc1nc(Oc2ccc(Cl)cc2Cl)cc(C(F)(F)F)n1`, the Potency was inconclusive [inhibitor, partial curve].
For `Cc1cc(C)n2cc(CSc3nnnn3C)nc2n1`, the Potency was inconclusive [inhibitor, partial curve].
`Oc1cc(O)c2c(c1)OC(c1ccc(O)c(O)c1)C(O)C2` (stereo unspecified) was tested, and the Potency was inconclusive [inhibitor, partial curve].
For `CC1OC2(C)OC(=N)C1(C#N)C(C#N)(C#N)C2c1ccccc1` (stereo unspecified), the Potency was inconclusive [inhibitor, partial curve].
`CCOc1cc(CNc2ccc(N3CCOCC3)cc2)cc(Br)c1OCC` was tested, and the activity change, negative = inhibition was inactive: -6.92%.
For `COc1ccc(N2CCn3c2nc2c3c(=O)n(CCc3ccccc3)c(=O)n2C)cc1`, the Potency was inconclusive [inhibitor, partial curve].
`COC(=O)c1cc(-c2c(C)oc3cc(O)ccc3c2=O)c(C)o1` was tested, and the Potency was inconclusive [inhibitor, partial curve].
`Cc1cc(=O)n2nc(N3CCC(C(=O)NCCc4ccccc4)CC3)sc2n1` was tested, and the Potency was inconclusive [inhibitor, partial curve].
`CCOC(=O)c1cc2c(=O)n3ccccc3nc2n(Cc2ccccc2)c1=N` was tested, and the Potency was inconclusive [inhibitor, partial curve].
`COc1cc(C2CC(=O)c3cnc(N4CCN(Cc5ccccc5)CC4)nc3C2)cc(OC)c1OC` (stereo unspecified) was tested, and the Potency was inconclusive [inhibitor, partial curve].
In the case of `CCN(CC)CCN1C(=O)c2ccccc2NC1c1ccccc1F` (stereo unspecified), the Potency was inconclusive [inhibitor, partial curve].
For `Cc1cccc(OCCn2nc(C(=O)O)c3ccccc3c2=O)c1`, the Potency was active: 28.2 µM.
With `CCOC(=O)N1CCN(C(=O)CCc2c(C)nc3c(c(C)nn3-c3ccc(C)c(C)c3)c2C)CC1` the Potency was inconclusive [inhibitor, partial curve].
With `Cc1ccc(Oc2ccc(N)cc2)cc1` the activity change, negative = inhibition was inactive: -24%.
In the case of `CCCc1nc2oc(C(=O)OCC)c(N)c2c2c1COC(C)(C)C2`, the Potency was inconclusive [inhibitor, partial curve].
For `CCCCC(=O)NCc1ccc(F)cc1`, the Potency was inconclusive [inhibitor, single point].
`S=c1[nH]nc(-c2ccco2)n1/N=C/C=C/c1ccccc1` was tested, and the Potency was active: 14.1 µM.
In the case of `Cc1csc(SCC(=O)Nc2ccccn2)n1`, the Potency was inconclusive [inhibitor, partial curve].
For `CCN(CC)C(=O)C(=O)c1cccn1-c1ccccc1C#N`, the activity change, negative = inhibition was inactive: -13.4%.
For `c1csc(-c2ccnc3ncnn23)c1`, the Potency was inconclusive [inhibitor, partial curve].
`O=S(=O)(c1ccccc1)c1nc(-c2ccco2)oc1Nc1ccccc1` was tested, and the Potency was inconclusive [inhibitor, single point].
In the case of `CC(C)OC(=O)Cn1nnc2c(cnn2-c2ccccc2)c1=O`, the activity change, negative = inhibition was inactive: -14.2%.
`CCCCCCCCCCCCC1CO1` (stereo unspecified) was tested, and the activity change, negative = inhibition was inactive: -2.32%.
In the case of `Cc1cc(/C=N/n2cnnc2)c(C)n1-c1ccc(OCc2ccc(F)cc2)cc1`, the Potency was inconclusive [inhibitor, single point].
With `COc1ccc(OC)c(C2C(C#N)=C(N)Oc3cc(C)n(Cc4ccccn4)c(=O)c32)c1` (stereo unspecified) the activity change, negative = inhibition was inactive: -5.77%.
In the case of `COC(=O)C1OC(=O)C2OC23[C@]2(C)C(O)CC4C(C)(C)C(OC(C)=O)CC(OC(C)=O)[C@@]4(C)C2CC[C@@]13C` (stereo partly specified), the activity change, negative = inhibition was inactive: 0.971% and inactive: -6.59%.
For `Cc1c(Cl)cccc1NC(=S)NCc1ccccc1Cl`, the Potency was active: 22.4 µM.
`O=C(c1ccco1)N1CCN(c2ncnc3c2[nH]c2ccc(Cl)cc23)CC1` was tested, and the Potency was inconclusive [inhibitor, partial curve].
In the case of `O=C(OCc1nnc(-c2ccccc2)o1)c1ccco1`, the Potency was active: 8.91 µM.
`Cc1ccc2nsnc2c1S(=O)(=O)Nc1cccc2nsnc12` was tested, and the Potency was inconclusive [inhibitor, partial curve].
`COc1ccc(CCCc2nnc(SCC(=O)Nc3cc(C)c(C)cc3Br)o2)cc1` was tested, and the activity change, negative = inhibition was inactive: -7.38%.
For `N#Cc1ccccc1-n1c(N)c(C(=O)N2CCCC2)sc1=S`, the Potency was active: 25.1 µM.
With `COC(=O)c1ccc(CSc2nnnn2Cc2ccccc2)cc1` the Potency was inconclusive [inhibitor, partial curve].
With `CCCn1nc2cc(C(=O)NCc3ccccc3OC)ccc2c1OCC` the Potency was inconclusive [inhibitor, single point].
For `COCCCN(C(=S)NC(=O)c1ccc(C(C)(C)C)cc1)c1c(N)n(Cc2ccccc2)c(=O)[nH]c1=O`, the Potency was inconclusive [inhibitor, partial curve].
In the case of `Nc1ccc2c(c1)C(=O)N(CCCCCC(=O)O)C2`, the Potency was inconclusive [inhibitor, partial curve].
For `CCN(CC)C(=S)SCC(=O)NC12CC3CC(CC(C3)C1)C2`, the Potency was active: 14.1 µM.
For `COc1cc(NC(=O)c2cc3ccccc3o2)c(OC)cc1Cl`, the Potency was inconclusive [inhibitor, partial curve].
For `C=CCc1c(C)nc(SCc2nc3ccccc3c(=O)[nH]2)[nH]c1=O`, the Potency was active: 2.82 µM.
With `O=C(CCCN1C(=O)c2ccccc2C1=O)NCCC1=CCCCC1` the Potency was inconclusive [inhibitor, partial curve].
In the case of `Cc1ccccc1-n1c(C)nnc1SCC(=O)N1CC(=O)Nc2ccccc21`, the activity change, negative = inhibition was inactive: -3.53%.
For `NC(=O)CC[C@@H]1NC(=O)[C@H](CO)NC(=O)c2cc([N+](=O)[O-])cc(I)c2OCC[C@@H](C(N)=O)NC1=O`, the Potency was inconclusive [inhibitor, single point].
For `CCCCCS(=O)(=O)CCCCCCCCCCn1c(-c2ccc(O)cc2)c(C)c2cc(O)ccc21`, the Potency was inconclusive [inhibitor, partial curve].
